According to PubChem BioAssay AID2147 (National Center for Advancing Translational Sciences (NCATS), 2009):
“And” between values parts separate entries of the source, which are not always exact repeats. Equal entries are not always repeated. Among all 230,000 compounds or so, about 3,600 (1.6%) were called active. The inconclusive results got no clear call from the source; some entries with a clear call stand among them for comparison. Calls come from the whole dose curve; as a rule, active = well fitted inhibition curve with a large enough effect (not every such curve was filed as active); inconclusive = small, poorly fitted or top-dose-only effect, or another doubt; inactive = no such curve, though single readings can be large or run the other way. Potencies beside an inconclusive call are fits to weak or partial responses and may not hold up.

Target: Lysine-specific demethylase 4E (Homo sapiens) (UniProt B2RXH2)
Assay: qHTS Assay for Inhibitors of Human Jumonji Domain Containing 2E (JMJD2E)
Details: JMJD2E catalytic domain, FDH-coupled NADH fluorescence (FDH is formaldehyde dehydrogenase); series mostly up to 57.1 µM
Note: nearly all actives have a fitted effect of over 50% in size.
Potency is the fitted concentration of half-maximal effect; tags give direction and shape of the fitted curve.

Chain of UniProt B2RXH2 (B2RXH2 whole entry, looked up, the tested form may be a part): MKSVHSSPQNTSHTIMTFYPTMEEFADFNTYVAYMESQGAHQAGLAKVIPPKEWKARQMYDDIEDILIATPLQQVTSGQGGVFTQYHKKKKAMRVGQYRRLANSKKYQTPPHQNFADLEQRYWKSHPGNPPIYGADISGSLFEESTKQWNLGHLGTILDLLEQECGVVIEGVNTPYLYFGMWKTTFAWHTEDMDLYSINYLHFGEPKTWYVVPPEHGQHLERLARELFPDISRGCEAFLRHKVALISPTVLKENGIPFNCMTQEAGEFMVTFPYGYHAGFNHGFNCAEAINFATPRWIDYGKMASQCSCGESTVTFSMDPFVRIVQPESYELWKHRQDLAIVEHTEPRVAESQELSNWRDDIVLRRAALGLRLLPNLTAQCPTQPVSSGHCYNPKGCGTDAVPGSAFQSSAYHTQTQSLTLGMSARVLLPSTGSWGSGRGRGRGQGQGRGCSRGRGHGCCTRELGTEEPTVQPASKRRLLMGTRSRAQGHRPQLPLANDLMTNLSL

SMILES | Potency
O=C(O)C(Oc1ccc2c3c(c(=O)oc2c1)CCC3)c1ccccc1 (stereo unspecified) | inconclusive: 28.2 µM [inhibitor, partial curve]
CCC(=O)Nc1ccc(NC(=O)CSc2nc3cc4c(cc3cc2C)CCC4)cc1 | inactive
Cc1ccc(CNc2cc(-c3nn4c(C)nnc4s3)ccc2C)s1 | inconclusive: 31.6 µM [inhibitor, partial curve]
COc1ccccc1NC(=O)COC(=O)/C=C/c1ccc2c(c1)OCO2 | inconclusive: 31.6 µM [inhibitor, partial curve]
COC(=O)C1=NN(C(=O)c2ccc(Cl)cc2)C(O)(c2ccccc2)C1 (stereo unspecified) | inconclusive: 31.6 µM [inhibitor, single point]
O=C(NCc1cccnc1)c1ccc(Cl)c(S(=O)(=O)Nc2ccccc2C(=O)NCc2cccnc2)c1 | inactive
COc1cc2c(cc1OC)C(/C=C/c1ccco1)=NCC2 | inconclusive: 35.5 µM [inhibitor, single point]
O=C(N/N=C/c1ccc2c(c1)OCO2)c1cc(-c2ccc(F)cc2)nc2ccccc12 | inactive
CCCCCCC/C=C\CCCCCCCCC(=O)O | inactive
COc1cc(/C=C/C(=O)Nc2ccccc2C(F)(F)F)cc(OC)c1OC | inconclusive: 28.2 µM [inhibitor, partial curve]
O=C(COc1ccc(Cl)cc1[N+](=O)[O-])NC1CCCCC1 | inactive
O=C(Cc1ccccc1)Nc1ccc(N2CCCC2)cc1 | inconclusive: 17.8 µM [inhibitor, partial curve]
c1ccc2c(-c3cn4ccccc4n3)c[nH]c2c1 | inconclusive: 28.2 µM [inhibitor, partial curve]
CCNC(=S)N1CCn2c(nc3ccccc32)C1 | inactive
Cc1ccc(S(=O)(=O)N2CCN(C(=O)COc3ccc(C)nc3[N+](=O)[O-])CC2)c(C)c1 | inactive
Cc1cc(=O)n2[nH]c(-c3sccc3-n3c(C)ccc3C)cc2n1 | inconclusive: 8.91 µM [inhibitor, single point]
O=C1C2CCCN2C(c2ccccc2)N1c1nccs1 (stereo unspecified) | inactive
CC1(c2ccccc2)NC(=O)N(CC(=O)Nc2ccc([N+](=O)[O-])cc2)C1=O (stereo unspecified) | inactive
c1ccc(CNc2nc(N3CCN(Cc4ccccc4)CC3)nc3ccccc23)cc1 | inconclusive: 31.6 µM [inhibitor, single point]
Cc1ccc2sc(NC(=O)CSc3nc(C)cc(C)c3C#N)nc2c1 | inconclusive: 28.2 µM [inhibitor, partial curve]
Cc1ccc2[nH]c(=O)c(CN(C)C(=O)c3ccccn3)cc2c1 | inconclusive: 28.2 µM [inhibitor, partial curve]
O=c1oc2ccccc2c2oc3cc(O)c(O)cc3c12 | active: 15.8 µM and active: 28.2 µM
CCCCn1c(=O)n(C)c(=O)c2c3c(sc21)COC(C)(C)C3 | inconclusive: 28.2 µM [inhibitor, partial curve]

SMILES | Potency
Cc1cc2nc(-c3ccc(SCC(=O)N4CCOCC4)nc3)[nH]c2cc1C | inconclusive: 14.1 µM [inhibitor, partial curve]
COc1ccc(-c2nn3c(-c4ccccn4)nnc3s2)cc1OC | inconclusive: 28.2 µM [inhibitor, single point]
Cc1cc(=O)oc2cc(OCC(=O)N3CCOCC3)ccc12 | inconclusive: 31.6 µM [inhibitor, partial curve]
O=C(Nc1nnc(C2COc3ccccc3O2)o1)c1ccc(F)cc1 (stereo unspecified) | inconclusive: 25.1 µM [inhibitor, single point]
Cc1cc(C)nc(N2CCCC(C(=O)NC(C)C)C2)n1 (stereo unspecified) | inconclusive: 31.6 µM [inhibitor, partial curve]
COc1ccc(OC)c(/C=N/NC(=O)c2csc3ccccc23)c1 | inconclusive: 31.6 µM [inhibitor, partial curve]
Cc1noc(C)c1-c1nc(Nc2ccncc2)c2ccccc2n1 | inconclusive: 35.5 µM [inhibitor, single point]
Cc1nc2cc3ccccc3cc2n1C | inconclusive: 22.4 µM [inhibitor, partial curve]
COc1cc2c(cc1OC)CN(C(=O)CSc1nnc(C)s1)CC2 | inconclusive: 20 µM [inhibitor, single point]
Cc1csc2c(C#N)c(=O)c3c(n12)CCC3 | inconclusive: 25.1 µM [inhibitor, single point]
COc1ccc(C(=O)/C=C2\Sc3ccccc3N2C)cc1 | inconclusive: 31.6 µM [inhibitor, partial curve]
Cc1ccc(NC(=O)NCCN2C(=O)C3C4C=CC(C4)C3C2=O)cc1 (stereo unspecified) | inactive
CCCCC(=O)Nc1nnc(C2=COCCO2)o1 | inactive
CN(C(=O)c1ccc2c(Cl)c3c(nc2c1)CCC3)c1ccccc1 | inactive
Cc1nc2ccccc2n2c(-c3ccccc3)c3c(=O)n(C)c(=O)n(C)c3c12 | inconclusive: 31.6 µM [inhibitor, single point]
N#CC1=C(N)N2C(=C(C#N)C13CCCC3)Nc1ccccc12 | inconclusive: 28.2 µM [inhibitor, single point]
CC(C)C(=O)Nc1c(-c2cccs2)c(=O)c2ccccc2n1C | inconclusive: 39.8 µM [inhibitor, single point]
CN(C)CCn1c(=O)n(Cc2ccco2)c(=O)c2c3c(sc21)CCCCC3 | inactive
N#Cc1c(NC(=O)c2ccccc2Cl)n(Cc2ccccc2)c2nc3ccccc3nc12 | inconclusive: 25.1 µM [inhibitor, partial curve]
O=S(=O)(c1cccc(S(=O)(=O)N2CCN(c3ncccn3)CC2)c1)N1CCOCC1 | inconclusive: 39.8 µM [inhibitor, single point]
CC(C)OC(=O)CSc1nnc(-c2cnccn2)n1Cc1ccco1 | inactive
Cc1cc(NC(=O)CSc2ccc3nnc(-c4ccccc4)n3n2)no1 | inconclusive: 28.2 µM [inhibitor, partial curve]
Cc1c(CCOC(=O)c2cc([N+](=O)[O-])cc([N+](=O)[O-])c2)sc[n+]1CC(=O)c1ccc(Br)cc1 | inconclusive: 25.1 µM [inhibitor, single point]
